From the supplement of paper PMC5499739
The full ranking holds about 16,000 sequences; the median of “Z-score” is about -0.37, and the highest 2% start at about 3.2. The list shows a part of the results.

system: RBM10 RRM1-ZnF (GST-tagged construct); test: RNAcompete 7-mer binding Z-score; higher = stronger binding preference
Protocol: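 RNAcompete: 20 pmol GST-tagged RBM10 RNA-binding constructs were incubated with a designed RNA pool of about 241,000 sequences up to 41 nt (1.5 nmol) on glutathione beads for 30 min at 4 °C and washed. Bound RNAs were identified by microarray hybridisation. Each RNA 7-mer is scored by a one-sided Z-score of its enrichment, computed over probes that contain the 7-mer within longer pool sequences.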

Sequence	RNAcompete 7-mer binding Z-score
UCCGCGU	-0.412
CAAGGUU	1.51
AAAUGAC	-0.334
AAGUAAU	-0.347
AACUACA	-0.552
GAUCCCU	-0.808
UCACCCA	-0.724
ACCACGG	0.192
CUUCCCC	-0.461
UUUGUAU	-0.737
AAAAUGG	2.81
AUAAGGU	1.72
CCGUGAU	-0.539
AAAAUUA	-0.314
ACCACUC	-0.62
UAAGACA	-0.324
GCCGCCC	-0.363
CCUUCCG	-0.727
UAUGCGC	-0.454
AGAUCUU	-0.776
GGUCGAA	0.615
AACUCGC	-0.724
GGUCAUC	-0.0642

Sequence	RNAcompete 7-mer binding Z-score
AACUAAA	-0.399
UUCAAAG	-0.467
UUAUGCU	-0.828
ACCCCAG	-0.435
AGGAGUA	1.5
CGACAAC	-0.542
UCGUGUC	-0.457
AUUUCCA	-0.828
AGGUGGA	3.15
AACCCGC	-0.678
CAAUAAC	-0.62
CUGGUCA	-0.519
AAAAUUU	-0.552
AUUCAUU	-0.613
UAUAUUU	-0.714
CUAGCCU	-0.733
CGCGAUC	-0.753
UAAGCAC	-0.467
CCUCACA	-0.691
UUUGCCA	-0.857
AAAUCUU	-0.711
CCGCAGG	0.0138
AGGGCUU	0.16

Sequence	RNAcompete 7-mer binding Z-score
AGUCAUU	-0.548
UUCGACC	-0.795
AGAAUAU	-0.201
GACCGCA	-0.802
CUCCGUG	-0.597
UACAUGA	-0.171
CGACGGU	0.267
AUCGCAC	-0.444
CCUGACC	-0.766
GACCCGG	-0.441
GUUUUCU	-0.584
GUAAUCG	0.0918
GAAGUCC	-0.529
GAAUCAU	-0.324
CUUCUGU	-0.737
UGAUCAA	-0.376
UUCCGAU	-0.805
CAUACAU	-0.457
UACACUA	-0.522
CGUAGCA	-0.331
CGAUUAU	-0.639
GGUCGAC	0.137
UCGAACA	-0.418

Sequence	RNAcompete 7-mer binding Z-score
CAUGAUG	-0.136
UGGAUUA	1.08
AUCGUCU	-0.681
GUAGGUA	2.15
GCCUUCU	-0.681
CUCGGUA	-0.487
GAGCUGA	0.417
GAAAUUA	-0.373
GCUCCAU	-0.662
CCCUUUU	-0.974
AUUCUCU	-0.792
GUGUAUC	-0.197
CUUUAUA	-0.717
CGGGUAU	1.59
GGGGUAA	4.14
GUAUCGA	-0.217
AUAUACG	-0.259
GACUUUC	-0.834
CUAGAUA	-0.412
ACGCGAU	-0.425
GUAUGUC	-0.181
UUUCGUU	-0.626
CCCCGAU	-0.301

Sequence	RNAcompete 7-mer binding Z-score
GAAAGUU	0.225
GCCUACG	-0.321
CGUUCAA	-0.646
UACGCGG	0.374
CGGUUGC	0.332
GCGCUUA	-0.509
AUAAUGG	1.73
GGGGACA	3.08
CGCAUUA	-0.578
UCUCCGG	-0.396
UAAAUCA	-0.483
GCUCCUU	-0.746
GGCCGUU	-0.597
UGACACC	-0.399
UUAGACU	-0.555
GGGCGCG	2.12
GACGGGA	2.47
GAUAUGU	0.082
CGCGGAG	1
GCAAUAU	-0.545
ACACCCG	-0.347
CACAUCU	-0.639
ACAACGC	-0.792

Sequence	RNAcompete 7-mer binding Z-score
CCGAGCG	0.056
GGGAACA	2.67
CAGGUAA	1.17
CGGUUCG	-0.227
GUGGUCG	1.2
GGUUACG	1.39
UUCACCU	-0.805
AAUCCAU	-0.789
CCUGUAC	-0.707
ACAGCGA	-0.0674
UUUAAGG	0.569
CGAGUAG	0.15
AGUUGUG	0.371
AUACGGU	1.07
GCAAAAA	-0.279
CGUGUCA	-0.529
UGCAAUC	-0.604
UAUCCGG	-0.513
UCCGAUA	-0.746
GUGAGCC	0.00729
UCAAUAU	-0.675
UGCGAUG	0.15
GUAAGGU	2.71

Sequence	RNAcompete 7-mer binding Z-score
UAUUGGC	-0.201
AUGGAAU	1.69
AUCCGAG	-0.662
GGUAUGG	4.22
GCAAGAG	0.537
CAGACGU	-0.272
GCAACAA	-0.295
CUGUUGA	-0.422
CGUGAAU	-0.262
GGCAGGC	1.19
UCCAAAC	-0.675
CUGCCAA	-0.759
GAUACAA	-0.0609
ACUUUCA	-0.828
CCUUGGU	-0.0837
GAGCGGU	1.72
AUUCAAG	-0.425
AAUGAGU	0.235
CGGCUAG	0.238
CGCUCGU	-0.522
AAACUAU	-0.694
CCCUGCG	-0.0155
GCAAGCC	-0.652

Sequence	RNAcompete 7-mer binding Z-score
CUGGACG	0.267
GAUUGGG	3.62
UGGAGAA	1.88
UCUCUUC	-0.652
UGUAGAG	0.923
GCUACGC	-0.35
UAGAACA	0.274
UACGUAU	-0.422
UUUCAUA	-0.772
UAUGGGU	2.81
CCGCCCU	-0.49
AUCAGAU	-0.184
GGCCUUA	-0.474
AUUAAAU	-0.578
UGUCAAU	-0.513
GAACUAG	-0.123
CAAAAGA	-0.243
UACUAAC	-0.565
UCAAGAC	-0.396
CGUACAG	-0.214
GCCGUCA	-0.587
AAUAGUA	0.0885
CAGGUGG	2.25
